# Data from publication PMC5836133.
# Some of the results follow. At the low end of the ranking the order means little.
# Test system: T1, GST-NbGlk1(82-244)
# T1 sequence: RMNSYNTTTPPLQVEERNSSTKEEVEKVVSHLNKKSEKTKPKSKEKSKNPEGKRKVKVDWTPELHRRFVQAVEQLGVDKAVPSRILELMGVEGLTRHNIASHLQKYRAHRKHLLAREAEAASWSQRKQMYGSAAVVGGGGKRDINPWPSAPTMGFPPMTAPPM
# Test: protein-binding microarray;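 also: rank-based score ranging −0.5 to +0.5 with E above 0.45 taken as significant binding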
# Details: NbGlk1 is a Golden2-like transcription factor of Nicotiana benthamiana; high values mean tight binding; most listed sequences are background and not binding sites; double strand, one strand shown
row,Sequence,binding signal [E-score]
1,AACTATGA,0.0548
2,AAACAGCG,-0.0348
3,CAACTTTC,-0.0493
4,AAAAGGTT,0.0126
5,ATACTCAA,0.196
6,CAGATGAA,0.0461
7,AACCGGAA,-0.0142
8,ACACTGGA,-0.107
9,ATGAACCG,-0.217
10,ATATACGC,0.0739
11,AGTCAGAG,-0.0528
12,AATCGATG,0.268
13,CAACGGCC,-0.263
14,AAACAGGG,-0.0926
15,ACTGCCTG,-0.226
16,AAGTGGGG,-0.203
17,AAACGCGG,-0.103
18,CAGAATTA,0.118
19,CAGCAGTC,-0.257
20,AGGCAGTG,-0.131
21,ATGAGAGA,0.0988
22,AAAAGCTG,-0.0311
23,ACTACAAA,0.0558
24,ATGTCTAG,-0.0912
25,AAGCCGGG,-0.211

row,Sequence,binding signal [E-score]
1,AAGCAAGC,-0.242
2,AGGGCCAC,-0.275
3,CAGAAGCG,-0.072
4,CAGCGCTG,0.0149
5,AGGTGGGA,-0.148
6,ATGCCTAG,-0.165
7,ATCGGACC,-0.0571
8,AACGTTCG,-0.0944
9,CAAGAACA,-0.0173
10,ACTCGAGG,-0.0502
11,ATCTGGGG,0.27
12,AAACACAC,0.133
13,AGTCGTGG,-0.112
14,ACACCTAT,-0.0126
15,AGATGCTG,0.054
16,AGCGTATC,0.36
17,CAATTTGA,0.0231
18,CAACGTGC,-0.246
19,ACATACAG,0.0684
20,ACGGAAGG,-0.191
21,ATTCAGCG,-0.11
22,AGGATTCC,0.448
23,CACCACGC,-0.166
24,ACTGGGCT,-0.256
25,AGGCACAA,-0.157

row,Sequence,binding signal [E-score]
1,AAGCTACG,-0.185
2,AATCCCAC,0.318
3,AACGGGAG,-0.0516
4,AAGACAGG,0.0457
5,AAATGCCT,-0.16
6,ATTACACG,0.268
7,ACTAGGCA,-0.0358
8,CACACGAG,-0.0638
9,AATATTCA,0.131
10,AGGTGTCA,-0.142
11,AATCGTTA,0.165
12,AATTAGCT,-0.0741
13,ATTGTGCC,0.138
14,AGGTACGG,-0.0858
15,ACAGCCGT,-0.222
16,ACTCCGTA,-0.0316
17,AAATATTT,0.323
18,ATTGCGTC,0.271
19,AGGGAAAA,-0.0488
20,CAATTTGC,-0.0427
21,ACCGCTCG,-0.0968
22,ATTTGTGA,0.245
23,AATCTACG,0.38
24,ATTACATA,0.267
25,CACACGCG,-0.0846

row,Sequence,binding signal [E-score]
1,AGCGTTCA,-0.196
2,ATACAGGC,0.0934
3,ACAAAGTC,-0.159
4,ACGGTGCT,-0.239
5,AATTCATC,-0.0313
6,ATCGGGGA,0.273
7,AGCTAGTC,-0.207
8,AGTTGCAT,-0.0683
9,AGAATCAG,0.39
10,AGCCTATA,0.0255
11,ATAATACA,0.199
12,AATATATT,0.285
13,ATGTTGAC,-0.00987
14,ACGAGAAG,-0.0907
15,AATTATTG,0.0196
16,AGGGGTTG,0.0254
17,ATTCCGCG,0.256
18,AAGTATCT,0.249
19,AACCCTCA,-0.151
20,CAATTAGC,-0.0547
21,ATCATTGA,0.15
22,CAGCGGAA,-0.0496
23,ACATTCAT,0.0302
24,AGCATAGG,-0.0275
25,CAAAAGGG,-0.102

row,Sequence,binding signal [E-score]
1,AACGAGCA,-0.0291
2,AACAAAAG,-0.00606
3,AATTCGAA,0.076
4,AACTCCTA,-0.0272
5,AGCAGAGC,-0.145
6,AAACATAC,-0.00662
7,CAGCCCAG,-0.288
8,CACATGAA,0.152
9,ACTGGGTG,-0.218
10,CACGACCC,-0.203
11,ATCCCTTA,0.215
12,ACCAATTA,0.0139
13,AACTTTGT,-0.0974
14,ATAAGATC,0.33
15,AGTCCGCA,-0.0737
16,ACCACAAG,-0.109
17,AACTTCCC,-0.0859
18,AGTAGTTG,-0.00343
19,ATTCAATG,0.0604
20,ATGCAATA,0.0779
21,AGTGCCTA,-0.225
22,AGATAACT,0.0104
23,AGTCAATC,-0.103
24,AAATCCGA,0.427
25,CAAAATTG,0.108

row,Sequence,binding signal [E-score]
1,ATCACGGA,0.159
2,ACCTCCAG,-0.305
3,ACCGGGGC,-0.133
4,ATGCCAGG,-0.0363
5,ATTGTCCA,0.193
6,AAGCTAGC,-0.121
7,ATCACCTC,0.103
8,ATCCCCCG,0.123
9,ATACTAAT,0.126
10,ACATAGCA,-0.0674
11,AACACCCC,-0.227
12,ATACCGAA,0.193
13,ACCCGCCG,-0.147
14,ACCCTAGT,-0.0635
15,ACTTCCAG,-0.235
16,AGTAATAT,0.29
17,ATATAGAC,0.0704
18,ACACTAGT,-0.0471
19,ACACCCAC,-0.11
20,AACTCGCT,-0.17
21,AGATTGCT,0.426
22,AAGCCAAA,-0.205
23,CAAAGGGG,-0.11
24,ATCACATC,0.191
25,AAGAGGCT,-0.276

row,Sequence,binding signal [E-score]
1,AACAGGTT,-0.139
2,AAATAGAC,-0.0414
3,ATTAGGGA,-0.017
4,AACAAGGT,-0.1
5,CAAGATGG,-0.164
6,AAAGGATA,0.173
7,ATCGAGCA,0.0859
8,AAAACGGC,-0.102
9,AGCTTGTG,-0.215
10,AAAATCAT,0.302
11,ACTACACC,-0.0911
12,AACAGCCG,-0.229
13,ATATTTTA,0.311
14,ACCGACCC,-0.251
15,AAGTTTTA,0.051
16,ATAATACG,0.123
17,ACGTATCC,0.292
18,AAGTGAGG,-0.0645
19,AGTTGAGA,0.08
20,AAGGCGCT,-0.147
21,ATTACATG,0.293
22,AGAATGCC,-0.231
23,AAGATAGG,0.0264
24,AGCGTCGA,-0.0694
25,ACGCACCC,-0.138

row,Sequence,binding signal [E-score]
1,ATGACCAA,-0.0544
2,ATCCGGAA,0.332
3,ACACTCGT,-0.123
4,AGACAACA,-0.122
5,AGGCATCA,0.065
6,ACGAAACG,0.00984
7,ACAGTACC,-0.0837
8,ACCTTGCG,-0.0467
9,ACTATGTA,0.0595
10,AATCGTCG,0.322
11,AGAGATCG,0.303
12,ACTACATA,-0.00843
13,AGACGGCA,-0.145
14,ACCGAGAA,0.0135
15,AGAAAACA,0.0163
16,ATAATTAA,0.0602
17,AAGATTTG,0.393
18,AGGTAGGG,-0.0834
19,ATAGTATC,0.158
20,ATGATAGG,-0.057
21,ACACCATC,-0.115
22,ATCGATAA,0.144
23,ATGCGCTA,0.0334
24,CAGCAACG,-0.167
25,AGCTAGCG,-0.143

row,Sequence,binding signal [E-score]
1,AAAAGAGC,-0.092
2,AAACCTCA,-0.146
3,AAAGTCAT,-0.0932
4,ACTCGGAA,-0.0244
5,AAAAAATA,0.193
6,ACACCTCA,-0.00513
7,AAAAAGTA,-0.0658
8,AAGAGTGG,-0.136
9,AGGGCCTC,-0.215
10,AACAACTA,0.14
11,AAGTCGTC,-0.148
12,AGCTAGAC,-0.176
13,AACTACTG,0.118
14,AGGTTATG,-0.155
15,AAGGAGGC,-0.299
16,AGTCGGAA,-0.0961
17,AGAACGTG,-0.014
18,AGTTGCCA,-0.202
19,AGAATGAC,-0.0922
20,ATCGTAGG,0.0991
21,AGACCACG,-0.279
22,AGACCCGA,-0.215
23,ATTACCAC,0.255
24,ATCCCCTA,0.276
25,AGTCGGAC,-0.0438

row,Sequence,binding signal [E-score]
1,ACATGAGC,-0.0676
2,ACTTTAAC,0.0382
3,ATATAGGC,-0.0319
4,ACAATAGC,0.0546
5,ACGTGACT,-0.142
6,ATCCGCCC,0.197
7,ACAGGCTA,-0.0619
8,ATTTATTG,0.216
9,AGTTCTTC,-0.101
10,AGGTTCAT,-0.169
11,ACAGTCTC,-0.273
12,AGTGGATC,0.202
13,ACCCGGTA,-0.141
14,CACGATTC,0.371
15,AGGTAGTG,-0.0573
16,AGACAATG,-0.0389
17,AGGCGCTG,-0.0951
18,AGGCCCGC,-0.191
19,AGACGTTG,-0.113
20,AAGCAAAG,-0.153
21,ATTAAGAG,0.103
22,ACATGCGC,-0.157
23,CAAAACAA,0.0855
24,CACAGGGA,0.0183
25,ATCTCGTA,0.376

row,Sequence,binding signal [E-score]
1,AACGTCCG,-0.216
2,CAAAACAG,0.0913
3,AACAAGTC,-0.115
4,CACATAGC,-0.222
5,AGATCGTG,0.339
6,AAGGAAGG,-0.182
7,ATTCTTGA,0.221
8,ACCAGTGC,-0.188
9,ATTCTATA,0.284
10,ACCTATCC,-0.143
11,ACGCCACA,-0.097
12,CAACATAG,-0.0213
13,CACGTTAC,-0.0963
14,ACCGAAGG,-0.075
15,ATCCGAGA,0.308
16,AAGATGCT,-0.0571
17,ACTGACAG,-0.156
18,AGTTTTTG,0.0244
19,ACCGAACT,-0.194
20,ATGTAATC,0.462
21,AGCGCACT,-0.115
22,CACGAGAA,0.0453
23,CACTAACA,0.0374
24,CACTCTGA,0.0301
25,ATTTAACG,0.0836

row,Sequence,binding signal [E-score]
1,AACATCCT,-0.0858
2,ACCCTCTG,-0.216
3,AACTTGAC,-0.0515
4,CACACCGA,-0.0642
5,ACTCGTTA,-0.0219
6,AGCCAACT,-0.16
7,CAGACGAA,-0.0401
8,AAGCTGCT,-0.308
9,ATGGGATA,0.243
10,ATCGAGGG,0.0431
11,AATTTAAC,0.0456
12,CAAAACCG,-0.0304
13,AAATAGTC,0.0169
14,ATTCCCCC,0.37
15,AGTGCTAC,-0.0787
16,AAGATGTA,0.00254
17,ACTCGCCA,-0.162
18,AAGTTTCG,-0.0252
19,ACTGCCAG,-0.224
20,ATGAGGCA,-0.194
21,CAAGTTAG,-0.0641
22,AATACTGC,0.0862
23,AAGTGACG,-0.0349
24,AGTTCGGA,-0.0277
25,AACGCCCC,-0.313

row,Sequence,binding signal [E-score]
1,AGACAAGC,-0.161
2,AGACTAAG,0.0551
3,AACTTTTG,-0.161
4,AGGCGCCT,-0.256
5,AACCAGGG,-0.132
6,ATACGGGA,0.117
7,AATTTACC,0.155
8,AGTCTCAC,-0.173
9,ATGATTAA,0.134
10,ACTAATGC,-0.113
11,ACATATGC,-0.0342
12,AATAGTAA,0.208
13,AGTAGGAG,-0.002
14,CACACATC,-0.116
15,CACCGACG,-0.308
16,ATGCAGTA,0.0875
17,ACTCCCCA,-0.198
18,AGGGGGTA,-0.209
19,CAATTGTA,0.00564
20,AGCCATCC,-0.23
21,AAAGTGCT,-0.161
22,CAAACGGC,-0.166
23,AAAACTCC,-0.109
24,AATCATAA,0.285
25,AGGTACAA,-0.0644

row,Sequence,binding signal [E-score]
1,ATTGGAAC,0.0354
2,ATGAACTA,-0.191
3,AGGCGTCC,-0.249
4,ATTAGACA,0.0562
5,CAAGATTG,0.308
6,ATCGAATA,0.235
7,ACGAAACA,-0.05
8,AGTCTGAT,0.0552
9,ATGCTGCG,-0.0766
10,AAAAGCCT,-0.076
11,AAGGAGGT,-0.134
12,AACAATGT,0.0236
13,ACCAGTGG,-0.2
14,CAAGTCAC,-0.0658
15,ATCAAGAC,0.191
16,ATGGCCTA,-0.124
17,ACTCTTCA,-0.181
18,ATAATCAA,0.216
19,AGGTATAC,-0.106
